In PubChem BioAssay AID463173 (ICCB-Longwood Screening Facility, Harvard Medical School, 2010):
Among all 52,000 compounds or so, about 4,300 (8.3%) were called active. Rule as the data show it: active = survival mostly below about 52% (no sharp cut-off); inactive = mostly above about 56%. The list shows a part of the results.

tested on: DeltatarO mutant; assay: S. aureus survival, RN4220 and DeltatarO strains – OD600, teichoic acid synthesis inhibitors, primary screen (AID 463173); details: S. aureus RN4220 wild type/DeltatarO growth, OD600, 18 h, hits give low values, screened at 18.75 µg/mL (by protocol)

Compound	survival
COCCCNC(=O)C(C)n1c2ccccc2c2cnn(C)c(=O)c21 (centres undefined)	inactive: 86%
COc1ccc(NC(=O)CN2C(=O)CSc3ccc(S(=O)(=O)N(C)C)cc32)cc1Cl	inactive: 74%
O=C(Nc1ccc(Cl)c(C(F)(F)F)c1)c1ccc2c(c1)CCN2S(=O)(=O)c1ccccc1	active: 43%
CC(C)C(NS(=O)(=O)c1ccccc1)C(C)C	inactive: 97%
Cc1ccc2occ(CC(=O)Nc3ccc(S(=O)(=O)N4CCCC(C)C4)cc3)c2c1 (centres undefined)	inactive: 58%
COc1ccc(NC(=O)C2CCN(C(=O)N3CCOc4ccccc43)CC2)cc1	inactive: 80%
Cc1ccccc1Cn1nnc2c(=O)[nH]c(C3CCN(C(=O)c4ccccc4Cl)CC3)nc21	active: 17%
COc1ccc(CNC(=O)CCCn2c(=O)c3cccn3c3ccc(F)cc32)cc1OC	inactive: 53%
Cc1ccc(-n2ncc(C(=O)NCc3ccccn3)c2C2CCN(C(=O)OC(C)(C)C)CC2)c(C)c1	inactive: 63%
CCOc1ccc(NC(=O)C2CCN(S(=O)(=O)c3c(C)noc3/C=C/c3c(C)cc(C)cc3C)CC2)cc1	inactive: 83%
Cc1ccc(CNc2ncnc3c2c(-c2ccccc2)cn3-c2ccccc2)cc1	inactive: 90%
CCCC(=O)Nc1cccc(-c2cn3cccnc3n2)c1	inactive: 54%
Cc1cccc(C)c1NC(=O)CN(Cc1ccc(Br)cc1)S(=O)(=O)c1ccccc1	inactive: 60%
CCCSc1nc(-c2ccc(OC)cc2)cc(-c2ccccc2OC)c1C#N	inactive: 64%
COc1ccc(Cl)cc1Nc1cc(C)nc2nc(-c3ccccc3C)nn12	inactive: 70%
CN(C)c1ccc(C(CNC(=O)c2cccc(C(F)(F)F)c2)N2CCCC2)cc1 (centres undefined)	inactive: 102%
CCCn1c(=N)c(C(=O)NCc2cccnc2)cc2c(=O)n3ccccc3nc21	inactive: 54%
Cc1ccc(C)c(CNC(=O)c2ccc3c(c2)nc2n3CCC(C)C2)c1 (centres undefined)	inactive: 91%
Cc1ccc(N(C)S(=O)(=O)c2nnc(NC(=O)CC(C)C)s2)cc1	inactive: 90%
CCOC(=O)c1cc(OC(=O)c2ccc(OC)cc2)n(-c2ccccc2)n1	active: 59%
COc1ccc(NC(=O)C(Cc2ccccc2)NS(=O)(=O)c2ccc3c(c2)CCN3C(C)=O)cc1 (centres undefined)	inactive: 72%
CCOC(=O)Cc1ccc(NC(=O)Nc2cc3c(cc2N2CCCCC2)n(C)c(=O)n3C)cc1	inactive: 76%
Cc1ccc(Cn2nnc3c(=O)[nH]c(C(=O)NC(C)(C)C)nc32)cc1	inactive: 93%

Compound	survival
c1ccc2c(c1)c1ccccc1n2CN1CCOCC1	inactive: 87%
COc1ccc(OC)c(CCNC(=O)Cn2ccc3cc(S(=O)(=O)N4CCCCC4)ccc32)c1	inactive: 94%
COc1ccc(OC)c(-c2noc(N3CCN(c4cc(C)ccc4C)CC3)n2)c1	inactive: 87%
CCN(CC)c1ccc(NC(=O)c2sc3ccccc3c2Cl)cc1	active: -2%
COc1cccc(CNC(=O)C2CCN(Cc3cc4ccccc4n3Cc3ccc(C)cc3)CC2)c1	inactive: 83%
COc1ccc2oc(=O)c(C(=O)Nc3cccc(C(=O)O)c3)cc2c1	active: 50%
COc1cc(-c2cc3n(C)c(C)c(CCC(=O)NCc4ccccc4)c(=O)n3n2)cc(OC)c1OC	inactive: 92%
Cc1ccc(NC(=O)Cn2c(=O)ccc3cc(S(=O)(=O)N4CCC(C)CC4)ccc32)c(C)c1	inactive: 69%
O=C(Nc1ccc(F)cc1F)c1ccc2c(c1)CCN2S(=O)(=O)c1ccc(Cl)cc1	inactive: 72%
COc1ccc(-n2cc(C(=O)Nc3cc(F)ccc3F)c3ccccc3c2=O)cc1	inactive: 51%
CCCCOC(=O)c1ccc(NC(=O)CC2NCCNC2=O)cc1 (centres undefined)	inactive: 98%
CCOc1ccc(CNC(=O)Cn2ccc3cc(S(=O)(=O)N4CCCCCC4)ccc32)cc1	inactive: 128%
CC1=Nc2ccc(N)cc2C1(C)C	inactive: 59%
O=C(NCc1ccco1)Nc1c[nH]c2ccc(F)cc2c1=O	inactive: 99%
COc1ccc(CNc2nc(-c3ccc(Cl)cc3)cc(C(F)(F)F)n2)cc1	active: 29%
Cc1cc(N2CCN(c3cccc(C)c3C)CC2)nc(-c2ccccc2)n1	inactive: 90%
Cc1ccc2oc(-c3cccc(NC(=O)c4cccc5c(Cl)cccc45)c3)nc2c1	active: 51%
CCCCn1c(CCCNC(=O)c2cccc(C)c2)nc2ccccc21	inactive: 55%
COCCNC(=O)Cn1nc(-c2ccc(C)cc2)c2ccccc2c1=O	active: 39%
Cc1cccc(NC(=O)c2ccc(CN3CC(=O)N4CCCCC4C3=O)cc2)c1C (centres undefined)	inactive: 72%
COc1cc(C2CC(=O)Nc3ccc4ccccc4c32)ccc1OC(=O)C(C)C (centres undefined)	inactive: 67%
CCOc1ccc2c(c1)c(=O)c(C(=O)c1ccc(CC)cc1)cn2CC(=O)Nc1cccc(Cl)c1	inactive: 119%
O=C(NCCc1ccccc1)c1ccc2nc(CCc3ccccc3)oc2c1	active: 32%

Compound	survival
Cc1cc(C)c(Cn2c(=O)n(CCC(=O)NCc3ccc4c(c3)OCO4)c(=O)c3ccccc32)c(C)c1	inactive: 108%
CCOc1ccc(OCC)c(NC(=O)C2CCN(S(=O)(=O)c3ccc4c(c3)CC(C)N4C(C)=O)CC2)c1 (centres undefined)	inactive: 117%
C#CCn1c(O)c(N=NC(=O)c2ccncc2)c2cc(Br)ccc21	inactive: 76%
Cc1ccc2occ(CC(=O)N(Cc3ccc(Cl)cc3)Cc3ccco3)c2c1	inactive: 97%
Cc1ccc(N2C(=O)[C@@H]3CSC(c4ccc(Cl)cc4)N3C2=O)cc1 (some centres undefined)	inactive: 69%
CCc1ccccc1NC(=O)COCc1cc(-c2ccco2)on1	inactive: 55%
COC(=O)c1c(-c2ccc(Cl)cc2)noc1N1CCN(c2ccccc2OC)CC1	inactive: 75%
COc1ccccc1S(=O)(=O)Cc1ccc(C(=O)N2CCN(c3cc(Cl)ccc3C)CC2)o1	inactive: 64%
Cc1cccc2cc3c(nc12)SC(=NCc1ccco1)N(Cc1cccs1)C3	inactive: 82%
CCc1ccc(C(=O)CC2(O)C(=O)N(Cc3ccc(C)cc3)c3ccccc32)cc1 (centres undefined)	inactive: 57%
CC(C)c1nc2ccc(C(=O)NCc3ccccc3Br)cc2o1	inactive: 67%
COc1cccc(CNC(=O)c2ccc(-n3c(C)cc4c3CCCC4)cc2)c1	inactive: 78%
Cc1noc(-c2ccccc2OCC(=O)Nc2ccccc2[N+](=O)[O-])n1	active: 39%
CCOc1ccccc1N1CC(c2nc3ccccc3n2CCCOc2ccc(OC)cc2)CC1=O (centres undefined)	inactive: 78%
COc1ccc(CNC(=O)c2sc3nc[nH]c(=O)c3c2C)cc1	inactive: 75%
CC(C)OCCCN1C(=O)c2[nH]nc(-c3ccccc3O)c2C1c1ccccc1F (centres undefined)	inactive: 46%
O=C(Nc1ccc(S(=O)(=O)c2ccc(NC(=O)c3ccco3)cc2)cc1)c1ccco1	inactive: 86%
O=C(NCC1CCN(Cc2cccc(Cl)c2)CC1)Nc1ccc(F)c(Cl)c1	inactive: 55%
Cc1cc(O)c(C(c2ccccc2)N2CCN(c3ccc(F)cc3)CC2)c(=O)n1Cc1ccco1 (centres undefined)	inactive: 67%
O=C(c1ccco1)N(Cc1cccs1)c1ccc(F)cc1	inactive: 111%
Cc1ccc(-n2c(CCC(=O)O)ccc2-c2cccs2)cc1Cl	inactive: 86%
CCn1c(SC)nnc1C1CCCN(CC(=O)NCc2ccc3c(c2)OCO3)C1 (centres undefined)	inactive: 78%
Cc1cc(C)cc(NC(=O)Cn2c(=O)n(-c3ccc(C)c(C)c3)c(=O)c3oc4ccccc4c32)c1	inactive: 66%

Compound	survival
CCN1C=CC2=C(C#N)C(N)C(C#N)(C#N)C(c3ccccc3C(F)(F)F)C2C1 (centres undefined)	inactive: 89%
Cc1ccc2nc(CN3CCN(S(=O)(=O)c4ccc(C(C)C)cc4)CC3)oc2c1	inactive: 91%
COC(=O)c1ccc(NC(=O)CCn2cnnn2)c(C)c1	inactive: 78%
CCN1CCSc2ccc(C(=O)NCc3cccc(Br)c3)cc21	active: 46%
CCOc1ccc(NC(=O)CSc2c3c(nc4ccccc24)CCCC3)cc1	inactive: 88%
CCCCOc1ccccc1C(=O)N(Cc1sccc1C)C1CCS(=O)(=O)C1 (centres undefined)	inactive: 94%
COc1ccc2cc(CNc3ccc(C)cc3)c(=O)n(CC(=O)Nc3ccc(C)cc3Cl)c2c1	inactive: 102%
CC(C)(C)c1ccc(C(=O)N2CCCC(c3nc4c(nnn4Cc4cccc(F)c4)c(=O)[nH]3)C2)cc1 (centres undefined)	active: 7%
Cc1ccc(-c2cn3nc(N4CCCC(C(=O)NCc5ccc(F)cc5)C4)sc3n2)cc1 (centres undefined)	inactive: 86%
CC1=C(C(=O)N2CCCCC2)C(c2ccc(Cl)cc2)n2c(nc3ccccc32)N1 (centres undefined)	inactive: 70%
Cc1cccc(C(=O)Nc2ccc(N3CC=C(c4ccccc4C)CC3)c(C(=O)O)c2)c1	inactive: 102%
Cc1ccc(CN2C(=O)c3ccccc3Sc3ccc(C(=O)N4CCOCC4)cc32)cc1	inactive: 96%
Cc1ccc(NC(=O)c2oc3ccc(S(=O)(=O)N(C)C4CCCCC4)cc3c2C)c(C)c1	inactive: 73%
COc1ccc(-c2nc(C)c(CCNC(=O)c3ccc(C(F)(F)F)cc3)s2)cc1OC	active: -2%
CCOc1ccc(NC(=O)CSc2oc(-c3ccco3)nc2S(=O)(=O)c2ccccc2)cc1	inactive: 101%
COc1cc(NC(=O)CN2CCCN(Cc3cccc(F)c3)S2(=O)=O)cc(OC)c1	inactive: 86%
CCOC(=O)c1c(C)oc2nc(C)nc(NCCc3ccc(C)cc3)c12	inactive: 73%
CC(C)N(C(=O)CSc1nnc(-c2cccnc2)n1Cc1ccccc1)C(C)C	inactive: 56%
CCCc1cc(N2CCN(c3ccccc3F)CC2)n2cnnc2n1	inactive: 75%
CCN(CC)S(=O)(=O)c1ccc2c(c1)N(CC(=O)Nc1c(C)cccc1C)C(=O)C1CCCN21 (centres undefined)	inactive: 89%
